Measurements: the supplement of paper PMC5919970
Counter-ions that a name gives are not always drawn. In all, about 2,000 compounds were measured (“fractional viability relative to vehicle”: median about 0.92, lowest 2% from about 0.11 on). The list shows a part of the results.

Tested on: TYKNU
Test: fractional viability relative to vehicle; TYKNU is a high-grade serous ovarian cancer line; higher = less growth inhibition
Settings: 72 h, genotype: OPA1 knockout (sgOPA1 #2)
In short: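 Drug treatment lasted 72 h, with cells grown at 37 °C in 5% CO2 in RPMI 1640 supplemented with 10% FBS. Beforehand, TYKNU control cells or their lentiCRISPRv2 knockout derivatives had been seeded at 500 cells per well into drug-stamped 384-well plates carrying a ~2100-compound library at 2 or 10 μM, in duplicate. Viability came from Cell Titer Glo luminescence, with averaged duplicate treatment wells normalised to duplicate control wells in the same plate position.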

NS(=O)(=O)Cc1noc2ccccc12 [Zonisamide]
fractional viability (2uM): 1.33
fractional viability (10uM): 0.841

CC(=O)c1cc([N+](=O)[O-])c(Sc2ccc(F)cc2F)s1
fractional viability (2uM): 0.985
fractional viability (10uM): 0.596

Cc1cn([C@H]2C[C@H](N=[N+]=[N-])[C@@H](CO)O2)c(=O)[nH]c1=O [Zidovudine]
fractional viability (2uM): 0.84
fractional viability (10uM): 0.905

COc1ccc([C@@H]2Sc3ccccc3N(CCN(C)C)C(=O)[C@@H]2OC(C)=O)cc1 [Diltiazem HCl]
fractional viability (2uM): 1.24
fractional viability (10uM): 1.1

Cc1ccc2nc(NCCN)c3ncc(C)n3c2c1
fractional viability (2uM): 0.683
fractional viability (10uM): 0.296

Cc1c(NC(=O)OC[C@@H]2COCCN2)cn2ncnc(Nc3ccc4c(cnn4Cc4cccc(F)c4)c3)c12
fractional viability (2uM): 1.3
fractional viability (10uM): 0.847

CC(C[N+](C)(C)C)OC(N)=O (centres undefined) [Bethanechol chloride]
fractional viability (2uM): 0.991
fractional viability (10uM): 0.946

COc1ccc(C[C@H](NC(=O)[C@H](C)NC(=O)CN2CCOCC2)C(=O)N[C@@H](Cc2ccccc2)C(=O)[C@@]2(C)CO2)cc1
fractional viability (2uM): 0.149
fractional viability (10uM): 0.144

CN1CCC(CNc2ccc3ncc(-c4cccc(OC(F)(F)F)c4)n3n2)CC1 [SGI-1776 free base]
fractional viability (2uM): 0.888
fractional viability (10uM): 0.107

C[C@H](NC(=O)CCc1nc2ccccc2c(=O)[nH]1)c1ccccc1
fractional viability (2uM): 0.861
fractional viability (10uM): 0.876

NCC(=O)CCC(=O)O [5-Aminolevulinic acid HCl]
fractional viability (2uM): 0.939
fractional viability (10uM): 0.911

Cc1ccc(Sc2ccccc2N2CCNCC2)c(C)c1
fractional viability (2uM): 0.813
fractional viability (10uM): 0.131

Cc1ccc(C)c(OCCCC(C)(C)C(=O)O)c1 [Gemfibrozil]
fractional viability (2uM): 1.18
fractional viability (10uM): 1.01

O=C(O)C[C@H](O)C[C@H](O)/C=C/c1c(C2CC2)nc2ccccc2c1-c1ccc(F)cc1 [Pitavastatin Calcium]
fractional viability (2uM): 0.812
fractional viability (10uM): 0.564

COc1cc2c(cc1OC)[C@@H]1Cc3ccc(OC)c(OC)c3CN1CC2 [Rotundine]
fractional viability (2uM): 1.29
fractional viability (10uM): 1.36

O=C(CCCN1CCC(O)(c2ccc(Cl)cc2)CC1)c1ccc(F)cc1 [Haloperidol]
fractional viability (2uM): 1.17
fractional viability (10uM): 0.953

CC1(C)[C@@H](O)CC[C@]2(C)[C@H]3C(=O)C=C4[C@@H]5C[C@@](C)(C(=O)O)CC[C@]5(C)CC[C@@]4(C)[C@]3(C)CC[C@@H]12 [Enoxolone]
fractional viability (2uM): 1.11
fractional viability (10uM): 1.07

CC1(C)CC(=O)c2c(C(F)(F)F)nn(-c3ccc(C(N)=O)c(N[C@H]4CC[C@H](OC(=O)CN)CC4)c3)c2C1
fractional viability (2uM): 1.1
fractional viability (10uM): 1.08

Oc1ccc(Cc2nc3c(Cc4ccccc4)nc(-c4ccc(O)cc4)cn3c2O)cc1 [Coelenterazine]
fractional viability (2uM): 0.856
fractional viability (10uM): 0.938

C[C@H]1COC2(CCN(c3nc(=O)c4cc(C(F)(F)F)cc([N+](=O)[O-])c4s3)CC2)O1 (racemic) [BTZ043 Racemate]
fractional viability (2uM): 1.08
fractional viability (10uM): 0.876

O=C(O)c1ccc(-n2nc(-c3ccccc3O)nc2-c2ccccc2O)cc1 [Deferasirox]
fractional viability (2uM): 1.37
fractional viability (10uM): 0.791

O=C(NCc1cccc(O)c1)Nc1nc(-c2ccncc2)cs1
fractional viability (2uM): 1.14
fractional viability (10uM): 1.11

COC(=O)CCc1ccc(OCC(O)CNC(C)C)cc1 (centres undefined) [Esmolol HCl]
fractional viability (2uM): 0.995
fractional viability (10uM): 0.895

COc1c(C)c2c(c(O)c1C/C=C(\C)CCC(=O)OCCN1CCOCC1)C(=O)OC2 [Mycophenolate Mofetil]
fractional viability (2uM): 0.91
fractional viability (10uM): 0.648

CN1C(C(=O)Nc2ccccn2)=C(O)c2ccccc2S1(=O)=O [Piroxicam]
fractional viability (2uM): 1.05
fractional viability (10uM): 1.27

COCCOC(=O)C1=C(C)NC(C)=C(C(=O)OC(C)C)C1c1cccc([N+](=O)[O-])c1 (centres undefined) [Nimodipine]
fractional viability (2uM): 0.965
fractional viability (10uM): 1.04

NCCS [Cysteamine HCl]
fractional viability (2uM): 0.741
fractional viability (10uM): 0.828

COc1nc(C)cnc1NS(=O)(=O)c1cccnc1-c1ccc(-c2nnco2)cc1 [Zibotentan (ZD4054)]
fractional viability (2uM): 1
fractional viability (10uM): 0.979

C/C(O)=C(\C#N)C(=O)Nc1ccc(C(F)(F)F)cc1 [Teriflunomide]
fractional viability (2uM): 0.772
fractional viability (10uM): 0.506

Cn1cc(/C=C/C(=O)c2cccc(F)c2)cc1/C=C/C(=O)NO
fractional viability (2uM): 1.08
fractional viability (10uM): 0.705

Nc1nccc2c1ncn2C1C=C(CO)C(O)C1O (centres undefined) [3-Deazaneplanocin A (DZNeP)]
fractional viability (2uM): 0.802
fractional viability (10uM): 0.723

Cc1nc(N(C)C(=O)Cc2ccc(-c3ccccn3)cc2)sc1S(N)(=O)=O [Pritelivir (BAY 57-1293)]
fractional viability (2uM): 0.924
fractional viability (10uM): 0.791

N[C@@H](CC(=O)N1CCn2c(nnc2C(F)(F)F)C1)Cc1cc(F)c(F)cc1F [Sitagliptin phosphate monohydrate]
fractional viability (2uM): 1.11
fractional viability (10uM): 1.09

C[C@@H]1O[C@@H](O[C@H]2[C@H](Oc3cc(O)c4c(c3)O[C@H](c3ccc(O)cc3)CC4=O)O[C@H](CO)[C@@H](O)[C@@H]2O)[C@H](O)[C@H](O)[C@H]1O [Naringin]
fractional viability (2uM): 1.06
fractional viability (10uM): 0.828

C[C@H](CCC(=O)O)[C@H]1CC[C@H]2[C@@H]3C[C@H](O)[C@@H]4C[C@H](O)CC[C@]4(C)[C@H]3CC[C@]12C [Hyodeoxycholic acid (HDCA)]
fractional viability (2uM): 0.888
fractional viability (10uM): 1.12

N=C(N)c1ccc(N=NNc2ccc(C(=N)N)cc2)cc1 [Diminazene Aceturate]
fractional viability (2uM): 0.879
fractional viability (10uM): 0.912

CC(C)(C)OC(=O)N[C@H]1CCCCC/C=C\[C@@H]2C[C@@]2(C(=O)NS(=O)(=O)C2CC2)NC(=O)[C@@H]2C[C@@H](OC(=O)N3Cc4cccc(F)c4C3)CN2C1=O [Danoprevir (ITMN-191)]
fractional viability (2uM): 1.22
fractional viability (10uM): 1.08
